Results are given in words; binding and its absence hold for the method and conditions named. Some binding calls cover weakened binding; strength is not graded here. Tags and fused reporters may be left off the sequences shown.
Legend:
Test in all cases: two-hybrid; bait fused with the GAL4 DNA binding domain (pDEST32), prey fused with the GAL4 activation domain (pDEST22); mating of yeast strains AH109 and Y187; growth on -His (weak interaction) or -His -Ade (strong interaction); three replicates
[1] = target: T1, OSD1, yeast two-hybrid fusion (Arabidopsis thaliana) (UniProt Q9M2R1)
T1 sequence: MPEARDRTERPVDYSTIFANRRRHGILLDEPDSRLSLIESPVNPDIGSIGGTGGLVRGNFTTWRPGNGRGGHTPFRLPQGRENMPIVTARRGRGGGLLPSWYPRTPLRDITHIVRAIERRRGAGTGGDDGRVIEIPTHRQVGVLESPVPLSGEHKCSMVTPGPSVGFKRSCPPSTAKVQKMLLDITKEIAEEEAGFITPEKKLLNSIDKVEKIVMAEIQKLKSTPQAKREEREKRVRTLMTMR

[2] = target: T2, APC11, yeast two-hybrid fusion (UniProt Q9M9L0)
T2 sequence: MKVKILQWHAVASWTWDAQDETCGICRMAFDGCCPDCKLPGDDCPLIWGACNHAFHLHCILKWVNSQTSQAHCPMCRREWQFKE

[3] = target: T3, CCS52A2, yeast two-hybrid fusion (UniProt Q8VZS9)
T3 sequence: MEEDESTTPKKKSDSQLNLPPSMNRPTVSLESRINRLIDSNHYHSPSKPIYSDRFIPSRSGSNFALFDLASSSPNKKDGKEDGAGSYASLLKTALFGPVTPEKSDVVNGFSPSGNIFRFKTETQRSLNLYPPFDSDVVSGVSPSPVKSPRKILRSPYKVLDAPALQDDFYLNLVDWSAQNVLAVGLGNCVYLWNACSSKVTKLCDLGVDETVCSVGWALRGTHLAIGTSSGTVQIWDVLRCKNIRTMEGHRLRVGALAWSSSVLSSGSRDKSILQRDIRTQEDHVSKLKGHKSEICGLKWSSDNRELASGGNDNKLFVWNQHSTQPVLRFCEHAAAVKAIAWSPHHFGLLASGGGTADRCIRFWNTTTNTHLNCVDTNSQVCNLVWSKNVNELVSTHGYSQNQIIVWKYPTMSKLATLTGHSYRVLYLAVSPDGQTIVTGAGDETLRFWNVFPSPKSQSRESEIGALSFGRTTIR

[4] = target: T4, SAMBA, yeast two-hybrid fusion (UniProt Q9C613)
T4 sequence: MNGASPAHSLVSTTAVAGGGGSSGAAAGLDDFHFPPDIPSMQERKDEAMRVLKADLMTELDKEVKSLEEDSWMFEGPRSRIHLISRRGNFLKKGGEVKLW

[5] = target: T5, CDC27b (HOBBIT/APC3b), yeast two-hybrid fusion (UniProt Q8LGU6)
T5 sequence: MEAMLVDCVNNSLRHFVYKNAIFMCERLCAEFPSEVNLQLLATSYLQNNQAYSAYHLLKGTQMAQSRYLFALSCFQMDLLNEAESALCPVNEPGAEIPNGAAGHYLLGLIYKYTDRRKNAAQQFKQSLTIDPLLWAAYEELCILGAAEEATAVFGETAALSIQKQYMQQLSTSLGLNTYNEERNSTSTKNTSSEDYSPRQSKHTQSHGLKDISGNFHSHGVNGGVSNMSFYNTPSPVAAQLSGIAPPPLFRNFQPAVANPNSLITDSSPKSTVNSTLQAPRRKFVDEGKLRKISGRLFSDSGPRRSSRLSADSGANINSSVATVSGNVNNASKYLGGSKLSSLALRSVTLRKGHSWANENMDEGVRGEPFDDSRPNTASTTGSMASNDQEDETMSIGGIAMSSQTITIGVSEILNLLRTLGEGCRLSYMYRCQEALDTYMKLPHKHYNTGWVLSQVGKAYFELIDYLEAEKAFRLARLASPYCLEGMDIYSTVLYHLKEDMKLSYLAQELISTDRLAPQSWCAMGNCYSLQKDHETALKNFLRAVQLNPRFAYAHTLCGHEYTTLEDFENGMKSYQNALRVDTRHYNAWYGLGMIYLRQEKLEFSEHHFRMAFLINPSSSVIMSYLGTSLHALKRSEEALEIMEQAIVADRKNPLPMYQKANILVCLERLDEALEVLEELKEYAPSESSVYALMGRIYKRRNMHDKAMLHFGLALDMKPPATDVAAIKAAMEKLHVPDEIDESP

[6] = target: T6, APC7, yeast two-hybrid fusion (UniProt Q8VY89)
T6 sequence: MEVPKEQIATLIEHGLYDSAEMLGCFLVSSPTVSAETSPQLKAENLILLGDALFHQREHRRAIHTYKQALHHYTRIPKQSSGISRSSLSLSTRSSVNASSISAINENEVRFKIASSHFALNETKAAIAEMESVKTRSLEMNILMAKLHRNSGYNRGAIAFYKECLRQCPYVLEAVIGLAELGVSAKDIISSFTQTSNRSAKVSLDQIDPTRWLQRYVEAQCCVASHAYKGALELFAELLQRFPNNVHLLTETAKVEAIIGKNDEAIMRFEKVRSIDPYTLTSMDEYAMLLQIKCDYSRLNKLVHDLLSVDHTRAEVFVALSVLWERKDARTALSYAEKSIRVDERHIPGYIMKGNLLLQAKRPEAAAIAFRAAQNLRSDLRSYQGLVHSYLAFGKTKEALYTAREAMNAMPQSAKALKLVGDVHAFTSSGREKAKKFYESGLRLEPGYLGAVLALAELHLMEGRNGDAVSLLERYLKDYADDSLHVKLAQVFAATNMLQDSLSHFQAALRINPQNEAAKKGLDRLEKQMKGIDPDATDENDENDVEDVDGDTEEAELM

B1: TDM1 (THREE DIVISION MUTANT1), yeast two-hybrid fusion (protein, UniProt Q9SUC3 1-434)
chain: MCPCVERRAPPGVYYTPPPARTSDHVAAMPMTERRRPPYSCSSSSERRDPFHIVHKVPSGDSPYVRAKHAQLIDKDPNRAISLFWTAINAGDRVDSALKDMAVVMKQLGRSDEGIEAIKSFRYLCSFESQDSIDNLLLELYKKSGRIEEEAVLLEHKLQTLEQGMGFGGRVSRAKRVQGKHVIMTIEQEKARILGNLGWVHLQLHNYGIAEQHYRRALGLERDKNKLCNLAICLMRMSRIPEAKSLLDDVRDSPAESECGDEPFAKSYDRAVEMLAEIESKKPEADLSEKFYAGCSFVNRMKENIAPGTANKNYSDVSSSPASVRPNSAGLYTQPRRCRLFEEETRGAARKLLFGKPQPFGSEQMKILERGEEEPMKRKKLDQNMIQYLHEFVKDTADGPKSESKKSWADIAEEEEAEEEEEERLQGELKTAEM
binding [1]: no binding
binding [2]: no binding
binding [3]: no binding
binding [4]: no binding
binding [5]: binds
binding [6]: no binding
